Experimental data as given in PubChem BioAssay AID2147 (National Center for Advancing Translational Sciences (NCATS), 2009).
The whole screen tested about 230,000 compounds, of which about 3,600 (1.6%) were called active. The shares of active, inactive and inconclusive entries below differ from those in the screen. Calls come from the whole dose curve; as a rule, active = well fitted inhibition curve with a large enough effect (not every such curve was filed as active); inconclusive = small, poorly fitted or top-dose-only effect, or another doubt; inactive = no such curve, though single readings can be large or run the other way. Potencies beside an inconclusive call are fits to weak or partial responses and may not hold up.

What follows are molecules tested against Lysine-specific demethylase 4E (Homo sapiens) (UniProt B2RXH2) (assay: qHTS Assay for Inhibitors of Human Jumonji Domain Containing 2E (JMJD2E)). Conditions: JMJD2E catalytic domain, FDH-coupled NADH fluorescence (FDH is formaldehyde dehydrogenase); series mostly up to 57.1 µM; activity change, negative = inhibition: at the top concentration.
Sequence of UniProt B2RXH2 (B2RXH2 whole entry, looked up, the tested form may be a part): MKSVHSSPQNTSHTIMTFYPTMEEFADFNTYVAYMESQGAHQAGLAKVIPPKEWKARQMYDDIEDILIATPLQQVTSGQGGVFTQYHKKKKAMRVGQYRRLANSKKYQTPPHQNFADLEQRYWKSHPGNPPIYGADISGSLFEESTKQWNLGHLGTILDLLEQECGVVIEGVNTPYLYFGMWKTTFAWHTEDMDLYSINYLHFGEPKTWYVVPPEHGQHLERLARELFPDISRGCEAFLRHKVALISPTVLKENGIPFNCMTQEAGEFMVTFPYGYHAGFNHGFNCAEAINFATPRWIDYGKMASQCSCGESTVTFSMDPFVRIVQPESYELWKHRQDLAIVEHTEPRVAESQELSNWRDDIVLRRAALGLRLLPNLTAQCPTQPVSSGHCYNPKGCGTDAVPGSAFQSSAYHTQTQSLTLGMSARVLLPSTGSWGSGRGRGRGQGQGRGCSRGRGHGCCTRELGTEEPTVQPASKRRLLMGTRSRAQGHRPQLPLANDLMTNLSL
Note: nearly all actives have a fitted effect of over 50% in size.
Potency is the fitted concentration of half-maximal effect; tags give direction and shape of the fitted curve.
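Throughout, for activity change, negative = inhibition: 0% = wells with enzyme and -100% = buffer wells without enzyme.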

Row | SMILES | activity change, negative = inhibition | Potency
1 | O=C(NCC1CC1)Nc1cccs1 | inactive: -0.439% | 
2 | CC(C)(C)N(NC(=O)c1ccccc1)C(=O)c1ccc(C(=O)N(NC(=O)c2ccccc2)C(C)(C)C)cc1 | inactive: 2.76% | 
3 | CCOC(=O)N1CC=C2C(C#N)=C(N)C(C#N)(C#N)[C@H](c3ccccc3OCC)[C@H]2C1 | inactive: 3.49% | 
4 | Nc1c(C(=O)c2ccccc2)sc(Nc2ccccc2)c1S(=O)(=O)c1ccccc1 |  | inconclusive: 39.8 µM [inhibitor, single point]
5 | CCOc1ccc2nc(NC(=O)c3ccc(OC)c(S(=O)(=O)N4CCOCC4)c3)sc2c1 |  | inconclusive: 31.6 µM [inhibitor, single point]
6 | O=C(CN1C(=O)NC2(CCCC2)C1=O)Nc1ccccc1F | inactive: 1.34% | 
7 | Cc1nsc(Nc2ccc([N+](=O)[O-])cc2)c1C#N | inactive: -11.7% | 
8 | CC1Cc2ccccc2N1C(=O)CN1C(=O)COc2ccccc21 (stereo unspecified) | inactive: -5.72% | 
9 | COc1ccc(C(=O)N/C(=C\c2ccco2)C(=O)NCc2cccnc2)cc1 |  | inconclusive: 39.8 µM [inhibitor, single point]
10 | O=c1[nH]c2cc3c(cc2cc1CN(CCO)S(=O)(=O)c1ccccc1)OCCO3 |  | inconclusive: 25.1 µM [inhibitor, partial curve]
11 | CCOC(=O)N1CCC(=NNc2ccnc3cc(Cl)ccc23)CC1 |  | inconclusive: 39.8 µM [inhibitor, single point]
12 | CC(=O)Nc1ccc2c(c1)ncn2-c1ccc(C)cc1 | inactive: -1.47% | 
13 | O=C(Oc1ccc([N+](=O)[O-])cc1)c1ccc2ccccc2n1 |  | inconclusive: 35.5 µM [inhibitor, single point]
14 | Cn1cccc1-c1nc2ccccc2n1Cc1ccccc1 |  | inconclusive: 31.6 µM [inhibitor, single point]
15 | CCOC(=O)c1c(C)oc2c1c(CN1CCN(CCO)CC1)c(O)c1ccccc12 |  | inconclusive: 20 µM [inhibitor, partial curve, poor fit]
16 | O=c1[nH]c2cc3c(cc2cc1CN(Cc1nnnn1CC1CCCO1)C1CCCCC1)OCO3 (stereo unspecified) |  | inconclusive: 31.6 µM [inhibitor, partial curve]
17 | CN(C)c1ccc(C2NCCS2)cc1 (stereo unspecified) | inactive: 5.48% | 
18 | CC(=O)Nc1ccc(S(=O)(=O)Oc2ccc(C(=S)N3CCCCC3)cc2)cc1 | inactive: -9.08% | 
19 | COc1ccc(CNS(=O)(=O)c2ccc(F)c(C(=O)Nc3ccccc3OC)c2)cc1 |  | inconclusive: 35.5 µM [inhibitor, single point]
20 | c1ccc(CNCc2ccc3c(c2)OCO3)nc1 | inactive: -5.71% | 
21 | CC1(C)Cc2c(sc3[nH]c(=S)n(Cc4ccccc4)c(=O)c23)CO1 | inactive: 9.18% | 
22 | CCC1=Nc2cc(C(=O)NCc3ccco3)ccc2Sc2ccc(Cl)cc21 |  | inconclusive: 39.8 µM [inhibitor, single point]
23 | CCNC(=S)N(CCc1ccc(OC)c(OC)c1)Cc1cc2cc(OC)ccc2[nH]c1=O |  | inconclusive: 25.1 µM [inhibitor, partial curve]
24 | CCOC(=O)N1CCC(N2C(=O)c3ccccc3C2Nc2cc(C(=O)OC)cc(C(=O)OC)c2)CC1 (stereo unspecified) |  | inconclusive: 25.1 µM [inhibitor, partial curve]

Row | SMILES | activity change, negative = inhibition | Potency
25 | Nc1c(S(=O)(=O)c2ccccc2)csc1C(=O)O | inactive: -11.5% | 
26 | CCOCC(=O)Nc1ccccc1C(=O)O |  | inconclusive: 28.2 µM [inhibitor, single point]
27 | CC(=O)C1=C(O)C(=O)N(c2nccs2)C1c1ccccc1 (stereo unspecified) |  | inconclusive: 31.6 µM [inhibitor, single point]
28 | CC(C)(C)c1cc(O)c(C(C)(C)C)cc1O |  | inconclusive: 2.82 µM [inhibitor, full curve]
29 | CCOC(=O)C(C)Sc1nc(=O)n2ccccc2n1 (stereo unspecified) |  | inconclusive: 39.8 µM [inhibitor, single point]
30 | CCN(CC)S(=O)(=O)c1ccc(C)c(NC(=S)Nc2cccc(S(=O)(=O)N3CCCCCC3)c2)c1 | inactive: 6.96% | 
31 | Cc1cc(=O)[nH]c(N/N=C/c2ccc(N(C)C)cc2)n1 | inactive: -10.9% | 
32 | CN1C(=O)/C(=C2\SC(=S)N(CC3CCCO3)C2=O)c2ccccc21 (stereo unspecified) | inactive: 5.99% | 
33 | CCCn1c(-c2ccc(F)cc2)nc2c(NCCCN3CCOCC3)nc(C)nc21 |  | inconclusive: 22.4 µM [inhibitor, partial curve]
34 | O=c1c2c(-c3cccs3)csc2ncn1-n1cccc1 |  | inconclusive: 31.6 µM [inhibitor, single point]
35 | NC1=C(O)C(=O)C(c2ccccc2)O1 (stereo unspecified) |  | active: 15.8 µM
36 | CCC(=O)Nc1nnc(/C=C/c2ccc(OC)cc2)s1 |  | inconclusive: 28.2 µM [inhibitor, partial curve]
37 | COc1ccc(C(=O)NCCNc2ccccc2[N+](=O)[O-])cc1 | inactive: -0.347% | 
38 | NS(=O)(=O)c1ccc(CCNC(=O)Cc2ccccc2[N+](=O)[O-])cc1 | inactive: -1.54% | 
39 | Cc1sc(NC(=O)c2ccc(Cl)s2)c(C(N)=O)c1C |  | inconclusive: 25.1 µM [inhibitor, partial curve]
40 | Cc1ccc(C(=O)/C=C/Nc2ccccc2C(N)=O)o1 |  | inconclusive: 31.6 µM [inhibitor, partial curve]
41 | CC(C)Oc1ccccc1/C=N/NC(=O)c1ccc(F)cc1 | inactive: 3.22% | 
42 | O=Cc1c(Cl)nc2ccccn2c1=O |  | inconclusive: 25.1 µM [inhibitor, partial curve]
43 | CC(C)C[C@@H](CC(=O)N[C@H](CC(=O)N[C@@H]1CCNC[C@H]1C(=O)N[C@H](CC(=O)N[C@@H](CCC(=O)O)CC(=O)O)Cc1c[nH]c2ccccc12)C(C)C)NC(=O)[C@@H]1CCCC[C@H]1N |  | inconclusive: 35.5 µM [inhibitor, single point]
44 | CCc1cccc(C)c1NC(=O)C(c1ccc(O)cc1)N1CCC1=O (stereo unspecified) | inactive: 14.9% | 
45 | Cn1c2c(c(=O)n(C)c1=O)[C@@]1(C(=O)Nc3ccccc31)C(C#N)=C(N)O2 |  | inconclusive: 35.5 µM [inhibitor, single point]
46 | c1ccc2c(-c3nnc(SCc4cn5ccccc5n4)o3)c[nH]c2c1 |  | inconclusive: 39.8 µM [inhibitor, single point]
47 | CN(C)c1ccc(-n2cccc2)cc1 |  | inconclusive: 35.5 µM [inhibitor, single point]
48 | COc1ccc(-c2nn(-c3ccccc3)cc2/C=C2/SC(=S)N(Cc3ccco3)C2=O)c(C)c1 | inactive: 0.629% | 

Row | SMILES | activity change, negative = inhibition | Potency
49 | COc1cc(C(=O)N=c2sc3c(C)ccc(OC)c3n2C)cc(OC)c1OC |  | inconclusive: 3.16 µM [inhibitor, partial curve]
50 | Cc1cc(=O)oc2cc(OCC(=O)OCc3nnc(-c4ccccc4)o3)ccc12 |  | inconclusive: 22.4 µM [inhibitor, partial curve]
51 | Cn1cnc([N+](=O)[O-])c1Sc1nc2ccccc2[nH]1 | inactive: 6.17% | 
52 | O=C(c1ccc2c(c1)OCO2)C1CCCN(Cc2cccn2-c2cccnc2)C1 (stereo unspecified) |  | inconclusive: 39.8 µM [inhibitor, single point]
53 | Cc1c(C(=O)OCC(=O)NCCN2C(=O)CSC2=O)oc2c1ccc1ccccc12 |  | inconclusive: 28.2 µM [inhibitor, partial curve]
54 | O=Cc1ccc(OCC(=O)Nc2ccccc2C(F)(F)F)cc1 |  | inconclusive: 35.5 µM [inhibitor, single point]
55 | COCc1cc(C)nc(Nc2ccccc2C)c1C#N |  | inconclusive: 35.5 µM [inhibitor, single point]
56 | COc1cc(NC(=O)c2cc(Cl)ccc2Cl)ccc1-c1cc2ccccc2oc1=O |  | inconclusive: 28.2 µM [inhibitor, partial curve]
57 | CCOc1ccc(NC(=S)N(CCN2CCOCC2)Cc2cc3cc4c(cc3[nH]c2=O)OCCO4)cc1 |  | inconclusive: 25.1 µM [inhibitor, partial curve]
58 | Cc1ccc(C2(C)NC(=O)N(CC(=O)Nc3cccnc3Cl)C2=O)cc1 (stereo unspecified) |  | inconclusive: 8.91 µM [inhibitor, partial curve]
59 | O=C(NCc1ccco1)/C(=C\c1ccco1)NC(=O)c1ccco1 | inactive: -2.22% | 
60 | N/C(=N\NC(=O)c1ccccc1Cl)c1cc2ccccc2oc1=O | inactive: -4.3% | 
61 | COCCn1c(SCC(=O)NCCc2ccc(OC)c(OC)c2)nc2c([nH]c3ccccc32)c1=O |  | inconclusive: 25.1 µM [inhibitor, partial curve]
62 | Cc1ccc2[nH]c3c(NCCN4CCOCC4)ncnc3c2c1 |  | inconclusive: 35.5 µM [inhibitor, single point]
63 | CCn1c2ccccc2c2cc(NC(=O)CSc3nnc(-c4cccc(OC)c4)n3N)ccc21 | inactive: -2.11% | 
64 | CCOC(=O)c1[nH]c2cc3c(cc2c1NC(=O)CN1CCN(CCO)CC1)OCO3 |  | inconclusive: 28.2 µM [inhibitor, partial curve]
65 | Cc1ccc2cc(C(c3nnnn3C3CCCC3)N3CCN(c4ccc(F)cc4)CC3)c(=O)[nH]c2c1 (stereo unspecified) |  | inconclusive: 12.6 µM [inhibitor, partial curve]
66 | CN1/C(=C\C(=O)C[n+]2ccc3ccccc3c2)C(C)(C)c2ccccc21 | inactive: -7.98% | 
67 | COCCNCCCOc1ccc(Br)cc1Cl |  | inconclusive: 28.2 µM [inhibitor, single point]
68 | Cc1ccc(Cn2nnc3c(=O)n(Cc4cccc(C)c4)cnc32)cc1 | inactive: -0.684% | 
69 | CCc1nc(Nc2ccc3c(c2)OCCO3)c2oc3ccccc3c2n1 |  | inconclusive: 39.8 µM [inhibitor, single point]
70 | COc1ccc(C2Nc3ccccc3C(=O)N2c2ccc(Cl)cc2)cc1Cn1cc([N+](=O)[O-])cn1 (stereo unspecified) |  | inconclusive: 11.2 µM [inhibitor, partial curve]
71 | CC(C)N(CCn1c(SCC(=O)N2CC(=O)Nc3ccccc32)nc2ccccc2c1=O)C(C)C |  | inconclusive: 39.8 µM [inhibitor, single point]
